Laboratory results published in PubChem BioAssay AID1345083 (National Center for Advancing Translational Sciences (NCATS), 2018).
Screen size: about 94,000 compounds; about 6,200 (6.6%) were called active. Inconclusive results, whose numbers are uncertain, are shown with a selection of clear calls. Calls come from the whole dose curve; as a rule, active = well fitted inhibition curve with a large enough effect; inconclusive = small, poorly fitted or top-dose-only effect; inactive = flat fitted curve, though single readings scatter. Where the call is inconclusive, the potency comes from a doubtful curve fit.
Potency is the fitted concentration of half-maximal effect; tags give direction and shape of the fitted curve.

Assay: Cytotoxic Profiling in HEK 293 Cell Line of Diverse Libraries Using Quantitative High-Throughput Screening; note: nearly all actives have a fitted effect of over 60% in size
Details: HEK 293 viability, ATP luminescence (CellTiter-Glo), 48-72 h; series mostly up to 115 µM
Method in brief: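 Cytotoxicity was scored by loss of ATP-coupled luminescence (CellTiter-Glo) in HEK 293 cells. Compound treatment ran 48 or 72 hr at 37 degree Celsius, 5% CO2, 95% humidity.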
For Cc1cc(N2CCN(CC3CCCCC3)C(CCO)C2)nc(N)n1 (stereo unspecified), the Potency was inconclusive: 89.1 µM [inhibitor, single point]. With C1=C(c2nc(-c3cncnc3)cc3c2ccn3Cc2cccnc2)CCOC1 the Potency was “inactive”. With CC(=O)N1CCCC2(C1)CN(C)c1ccc(C(=O)NCC3CC3)cc12 (stereo unspecified) the Potency was “inactive”. With COc1ccccc1-n1cc(C(=O)NC2CCCN(C3CCCCCC3)C2)cn1 (stereo unspecified) the Potency was inconclusive: 56.2 µM [inhibitor, partial curve, poor fit]. With O=C1CC(c2noc(-c3ccccc3)n2)CN1c1ccc(Cl)cc1 (stereo unspecified) the Potency was inconclusive: 70.8 µM [inhibitor, partial curve, poor fit]. In the case of COc1ccc(CNC(=O)C2CCCCN2Cc2ccc(-c3ccccc3OC)cc2)cc1OC (stereo unspecified), the Potency is reported as active: 31.6 µM. For COc1cccc(NC(=O)CCC2CCN(C(=O)c3cc4ccccc4cn3)CC2)c1, the Potency was “inactive”. With O=C(NC1CCCC1)C1CCCN(Cc2cccc(-c3ccc(F)cc3F)c2)C1 (stereo unspecified) the Potency was active: 39.8 µM. In the case of C=CCCC(CN1CCCOCC1)Oc1ncc(Cl)cn1 (stereo unspecified), the Potency is reported as “inactive”. For CC(C)CN1C(=O)C(C)(C)[S+](=O)([O-])[C@H]2CN(Cc3cccc(C(=O)O)c3)C[C@@H]21, the Potency was “inactive”. For Cc1ccsc1CN1CCCN(S(=O)(=O)c2ccccc2)CCC(=O)NCC1, the Potency was “inactive”. For O=C(NC1CCCCC1)N1CCCCCC1c1nc(-c2ccncc2)no1 (stereo unspecified), the Potency was inconclusive: 70.8 µM [inhibitor, partial curve, poor fit]. In the case of CCOc1ccc(CN2CCC(CO)(Cc3ccccc3Cl)CC2)cc1, the Potency is reported as active: 79.4 µM. For Cn1cc(CN2CCOC[C@H]2c2nc(C(C)(C)C)co2)c2ccccc21, the Potency was active: 89.1 µM. With COc1ccc(C(=O)N2CCn3c(nnc3-c3ccncc3)C2)cc1 the Potency was “inactive”. For O=C(c1cccc(Cl)c1)N1CCCC1C(=O)N1CCCC1c1nc2ccncc2[nH]1 (stereo unspecified), the Potency was “inactive”. In the case of COc1ccc(-c2cnc([C@@H]3COCCN3Cc3ccc(C)cc3)[nH]2)cc1, the Potency is reported as inconclusive: 126 µM [inhibitor, single point]. With O=C(c1cc(F)ccc1F)N1CCC(Cc2nc(-c3ccccc3)no2)CC1 the Potency was inconclusive: 44.7 µM [inhibitor, partial curve, poor fit]. For CC[C@H]1CN(C(=O)NC2CCCCC2)CC[C@H]1CC(=O)Nc1nccs1, the Potency was inconclusive: 126 µM [inhibitor, single point]. With O=C(c1ccoc1)N1CCCC(CCc2ccc(F)c(F)c2)C1 (stereo unspecified) the Potency was inconclusive: 56.2 µM [inhibitor, partial curve, poor fit]. In the case of O=C(COc1ccccc1)N1CCC2(CC1)NC(=O)N(c1ccccc1Cl)N2, the Potency is reported as inconclusive: 44.7 µM [inhibitor, partial curve, poor fit].
